The record followed here is publication PMC3599065.

By UniProt entry, the sequences of proteins in these tests, tags left out. Residues count along the entry.
UniProt P05067, residues 724-770: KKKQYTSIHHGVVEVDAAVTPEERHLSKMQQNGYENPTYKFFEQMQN

No constants are given. Whether binding was seen depends on the method and setting. Binding seen in cells or lysates may run through a third protein. Some binding calls cover weakened binding; strength is not graded here.

In the assay the target is T1, TAP-JIP1-WT (in HEK293T) (mouse) (UniProt Q9WVI9).
T1 sequence: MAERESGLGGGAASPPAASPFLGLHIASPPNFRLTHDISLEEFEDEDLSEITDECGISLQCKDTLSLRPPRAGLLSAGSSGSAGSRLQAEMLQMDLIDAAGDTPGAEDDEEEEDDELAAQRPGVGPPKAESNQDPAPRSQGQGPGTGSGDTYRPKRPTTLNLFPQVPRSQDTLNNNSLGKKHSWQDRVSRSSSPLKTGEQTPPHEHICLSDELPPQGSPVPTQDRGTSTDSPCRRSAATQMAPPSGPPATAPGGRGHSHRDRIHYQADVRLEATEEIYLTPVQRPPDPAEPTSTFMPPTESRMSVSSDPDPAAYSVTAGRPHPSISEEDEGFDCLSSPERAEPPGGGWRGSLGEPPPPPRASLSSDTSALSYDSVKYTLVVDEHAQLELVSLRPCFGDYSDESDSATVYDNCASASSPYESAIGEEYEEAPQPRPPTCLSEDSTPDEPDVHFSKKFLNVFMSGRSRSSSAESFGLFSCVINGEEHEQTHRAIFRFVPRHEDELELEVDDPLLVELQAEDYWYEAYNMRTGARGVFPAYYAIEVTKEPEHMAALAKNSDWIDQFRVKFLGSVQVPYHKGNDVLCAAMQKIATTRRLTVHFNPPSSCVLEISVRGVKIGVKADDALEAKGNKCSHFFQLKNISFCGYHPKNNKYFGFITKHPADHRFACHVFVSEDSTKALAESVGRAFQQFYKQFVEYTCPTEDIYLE
Put plainly: pull-down; lysates of HEK293T cells expressing a TAP-tagged JIP1 or JIP3 construct with V5-KLC, V5-KHC and a GFP-tagged partner (GFP-JIP3, GFP-JIP1, GFP-DLK or GFP-APP-C constructs), precipitated with streptavidin sepharose, western blot.

As to “GFP-APP-C (from UniProt P05067-4 649-695) (domain or fragment)”, the binding entry is “binds”.
